Data reported in the supplement of paper PMC11283458.
The list shows a part of the results. Many values rest on one well or one pass, so single values are uncertain.

Test system: Mef2d microexon dual Nano/Firefly luciferase splicing reporter in Neuro-2a cells
Assay: B-score of Firefly/Nano luminescence ratio, V1 Mef2d microexon reporter (B-score (plate-normalised)); higher = more Mef2d microexon inclusion
Conditions: 24 h
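Wherever B-score of Nano/Firefly luminescence ratio, V2 Mef2d microexon reporter is given: compounds at 4 µM (PKI library 0.5 µM) on Dox-inducible N2A Flp-In cells with PEST-tagged luciferases, 384-well plates, B-score from per-plate median-polish residual over median absolute residual.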

| Compound | B-score |
| --- | --- |
| O=C1C2C(c3ccccc3)N3CN(C2c2ccccc2)C(c2ccccc2)C1C3c1ccccc1 (stereo not given) (4 µM) | 2.7 |
| Br.Cc1ccc(C2=Nn3c(nnc3-c3cc(Cl)cc(Cl)c3)SC2)cc1 (4 µM) | -2.61 |
| Cn1cnc([N+](=O)[O-])c1Sc1ncnc2nc[nH]c12 (4 µM) | -6.59 |
| Cn1ncc(C(=O)Nc2ccc(Cl)c(Cl)c2)c1[N+](=O)[O-] (4 µM) | 10.4 |
| O=C(Nc1ccccc1)Sc1cc(C(F)(F)F)cc(C(F)(F)F)c1 (4 µM) | 16.6 |
| CN(C)c1ccc(-n2nnnc2SCC(=O)c2ccc(F)cc2)cc1 (4 µM) | -7.88 |
| CCOC(=O)c1cc(C)nc(Sc2ccccc2NC(=O)c2ccccc2)c1C#N (4 µM) | 3.03 |
| COc1ccc(NC(=O)c2cc(-c3ccccc3)n(-c3ccccc3)c2C)cc1 (4 µM) | -5.99 |
| O=C1C(Cl)=C(Nc2ccc(O)cc2)C(=O)c2ccccc21 (4 µM) | 6.07 |
| COc1ccccc1N1CCN(C(=O)c2cc(OC)c(OC)c(OC)c2)CC1 (4 µM) | -7.33 |
| O=C1Nc2ccccc2/C1=C/c1c[nH]nc1-c1cccs1 (4 µM) | 2.73 |
| O=S1(=O)CS(=O)(=O)Oc2ccccc2O1 (4 µM) | 3.73 |
| CCOC(=O)c1[nH]c(C)c(C(=O)N2CCc3ccccc32)c1C (4 µM) | -7.72 |
| CC1=C(/C=C/C(C)=C/C=C/C(C)=C/C(=O)Nc2ccc(O)cc2)C(C)(C)CCC1 [Fenretinide] (4 µM) | 9.29 |
| COc1cccc2c1C(=O)c1c(O)c3c(c(O)c1C2=O)C[C@@](O)(C(=O)CO)C[C@@H]3O[C@H]1C[C@H](N)[C@H](O)[C@H](C)O1 (4 µM) | -10.1 |
| O=[N+]([O-])c1ccc(Sc2ssc(=S)c2-c2ccccc2)nc1 (4 µM) | -6.01 |
| CCC(=O)Oc1c(Cc2ccccc2)c(=O)oc2ccccc12 (4 µM) | -5.01 |
| CN1CCN(Cc2cc(Br)c(O)c3ncccc23)CC1 (4 µM) | 10.7 |
| Cc1nc2sccn2c1-c1csc(Nc2ccc(N(C)C)cc2)n1 (4 µM) | -8.33 |
| NC(=O)c1ccc(CNc2ccccc2-c2ccccc2)c([N+](=O)[O-])c1 (4 µM) | -2.04 |
| O=S(=O)(NCc1ccccn1)c1ccc(S(=O)(=O)c2ncc(C(F)(F)F)cc2Cl)s1 (4 µM) | 12.8 |
| CC(=O)N[C@H]1[C@H](O[C@H]2CC[C@@]3(C)C(CC[C@]4(C)C3CC=C3C5CC(C)(C)C[C@@H](C(=O)O)C5CC[C@]34C)C2(C)C)O[C@H](CO)[C@@H](O)[C@@H]1O (stereo not given in full) (4 µM) | 7.19 |
| COc1ccc2c(COC(=O)c3cccc(OCc4c(C)noc4C)c3)cc(=O)oc2c1 (4 µM) | -6.37 |
| N#Cc1c(O)nsc1Nc1ccc(Cl)cc1 (4 µM) | -2.19 |
| O=C(Oc1c(CN2CCOCC2)cc(Cl)c2cccnc12)c1ccc([N+](=O)[O-])cc1 (4 µM) | -1.93 |

Test system: Mef2d microexon dual Nano/Firefly luciferase splicing reporter in Neuro-2a cells
Assay: B-score of Nano/Firefly luminescence ratio, V2 Mef2d microexon reporter (B-score (plate-normalised)); higher = more Mef2d microexon inclusion
Conditions: 24 h

| Compound | B-score |
| --- | --- |
| C/C(=N\Cc1ccc(Cl)c(Cl)c1)c1ccccc1O (4 µM) | 2.58 |
| CCOC(=O)/C=C(\C)Sc1cc(=O)oc2ccccc12 (4 µM) | -7.01 |
| CNC(=O)c1nn(C)c2c1C(C)(C)Cc1cnc(Nc3ccc(N4CCN(C)CC4)cc3)nc1-2 (0.5 µM) | 8.15 |
| Nc1nc(=S)c2ncn([C@@H]3O[C@H](CO)[C@@H](O)[C@H]3O)c2[nH]1 [Thioguanosine] (4 µM) | -13.2 |
| O=C(Nc1noc2ccccc12)c1cc2c(s1)CCCC2 (4 µM) | -2.54 |
| NC(CSc1ccc(Cl)cc1)=NOC(=O)c1ccc(C(F)(F)F)cc1 (4 µM) | 23.6 |
| COC(=O)Nc1nc2cc(Sc3ccccc3)ccc2[nH]1 [Fenbendazole] (4 µM) | -22.6 |
| Cc1nc2ncccn2c1-c1csc(Nc2ccc(N(C)C)cc2)n1 (4 µM) | -12.7 |
| Cc1onc(-c2ccccc2)c1C(=O)Nc1c(C(C)(C)C)nn(C)c1C(C)(C)C (4 µM) | 3.45 |
| N#Cc1ccc2c(c1)/C(=C\c1ccccc1[N+](=O)[O-])C(=O)N2 (4 µM) | -17.2 |
| O=C1C(Cl)=C(Nc2ccccc2)C(=O)c2ccccc21 (4 µM) | 0.089 |
| C/C(=C/C(=O)NCc1ccc(F)cc1)NCc1ccc(F)cc1 (4 µM) | -0.596 |
| C=CC[C@H](N)C(=O)O [L-allylglycine] (4 µM) | 2.9 |
| CC(C)(C)c1ccc(C(N)=NOC(=O)c2cnn(-c3ccc([N+](=O)[O-])cc3)c2C(F)(F)F)cc1 (4 µM) | 2.84 |
| N=c1n(CCN2CCCCC2)c2ccccc2n1CC(=O)c1cccc([N+](=O)[O-])c1 (4 µM) | 3.09 |
| O=C1C2C(c3ccccc3)N3CN(C2c2ccccc2)C(c2ccccc2)C1C3c1ccccc1 (stereo not given) (4 µM) | 8.24 |
| Br.Cc1ccc(C2=Nn3c(nnc3-c3cc(Cl)cc(Cl)c3)SC2)cc1 (4 µM) | -4.96 |
| Cn1cnc([N+](=O)[O-])c1Sc1ncnc2nc[nH]c12 (4 µM) | -2.47 |
| Cn1ncc(C(=O)Nc2ccc(Cl)c(Cl)c2)c1[N+](=O)[O-] (4 µM) | 0.809 |
| O=C(Nc1ccccc1)Sc1cc(C(F)(F)F)cc(C(F)(F)F)c1 (4 µM) | -0.422 |

| Compound | B-score |
| --- | --- |
| CN(C)c1ccc(-n2nnnc2SCC(=O)c2ccc(F)cc2)cc1 (4 µM) | -12.3 |
| CCOC(=O)c1cc(C)nc(Sc2ccccc2NC(=O)c2ccccc2)c1C#N (4 µM) | 1.28 |
| COc1ccc(NC(=O)c2cc(-c3ccccc3)n(-c3ccccc3)c2C)cc1 (4 µM) | -16 |
| O=C1C(Cl)=C(Nc2ccc(O)cc2)C(=O)c2ccccc21 (4 µM) | 2.21 |
| COc1ccccc1N1CCN(C(=O)c2cc(OC)c(OC)c(OC)c2)CC1 (4 µM) | -7.27 |
| O=C1Nc2ccccc2/C1=C/c1c[nH]nc1-c1cccs1 (4 µM) | 7.93 |
| O=S1(=O)CS(=O)(=O)Oc2ccccc2O1 (4 µM) | 3.23 |
| CCOC(=O)c1[nH]c(C)c(C(=O)N2CCc3ccccc32)c1C (4 µM) | -10.1 |
| CC1=C(/C=C/C(C)=C/C=C/C(C)=C/C(=O)Nc2ccc(O)cc2)C(C)(C)CCC1 [Fenretinide] (4 µM) | 2.84 |
| COc1cccc2c1C(=O)c1c(O)c3c(c(O)c1C2=O)C[C@@](O)(C(=O)CO)C[C@@H]3O[C@H]1C[C@H](N)[C@H](O)[C@H](C)O1 (4 µM) | -16.4 |
| O=[N+]([O-])c1ccc(Sc2ssc(=S)c2-c2ccccc2)nc1 (4 µM) | -12.9 |
| CCC(=O)Oc1c(Cc2ccccc2)c(=O)oc2ccccc12 (4 µM) | -4.25 |
| CN1CCN(Cc2cc(Br)c(O)c3ncccc23)CC1 (4 µM) | 4.33 |
| Cc1nc2sccn2c1-c1csc(Nc2ccc(N(C)C)cc2)n1 (4 µM) | -9.22 |
| NC(=O)c1ccc(CNc2ccccc2-c2ccccc2)c([N+](=O)[O-])c1 (4 µM) | -4.86 |
| O=S(=O)(NCc1ccccn1)c1ccc(S(=O)(=O)c2ncc(C(F)(F)F)cc2Cl)s1 (4 µM) | 7.8 |
| CC(=O)N[C@H]1[C@H](O[C@H]2CC[C@@]3(C)C(CC[C@]4(C)C3CC=C3C5CC(C)(C)C[C@@H](C(=O)O)C5CC[C@]34C)C2(C)C)O[C@H](CO)[C@@H](O)[C@@H]1O (stereo not given in full) (4 µM) | 11.6 |
| COc1ccc2c(COC(=O)c3cccc(OCc4c(C)noc4C)c3)cc(=O)oc2c1 (4 µM) | -10.5 |
| N#Cc1c(O)nsc1Nc1ccc(Cl)cc1 (4 µM) | -1.29 |
| O=C(Oc1c(CN2CCOCC2)cc(Cl)c2cccnc12)c1ccc([N+](=O)[O-])cc1 (4 µM) | 34.6 |
